B1: DVD2431 (bispecific antibody, human IgG1)
heavy: EVQLQESGPGLVKPSETLSLTCTVSGFSLSDYGVSWIRQPPGKGLEWLGLIWGGGDTYYNSPLKSRLTISKDNSKSQVSLKLSSVTAADTAVYYCAKQRTLWGYDLYGMDYWGQGTLVTVSSASTKGPEVQLVQSGAEVKKPGSSVKVSCKASGGSFGGYGIGWVRQAPGQGLEWMGGITPFFGFADYAQKFQGRVTITADESTTTAYMELSGLTSDDTAVYYCARDPNEFWGGYYSTHDFDSWGQGTTVTVSS[human IgG1 constant region left out]
light: DTQVTQSPSSLSASVGDRVTITCITSTDIDVDMNWYQQKPGKPPKLLISQGNTLRPGVPSRFSSSGSGTDFTFTISSLQPEDFATYYCLQSDNLPLTFGQGTKLEIKRTVAAPEIVLTQSPDFQSVTPKEKVTITCRASQDIGSELHWYQQKPDQPPKLLIKYASHSTSGVPSRFSGSGSGTDFTLTINGLEAEDAGTYYCHQTDSLPYTFGPGTKVDIKRTVAAPSVFIFPPSDEQLKSGTASVVCLLNNFYPREAKVQWKVDNALQSGNSQESVTEQDSKDSTYSLSSTLTLSKADYEKHKVYACEVTHQGLSSPVTKSFNRGEC
B2: DVD2432 (bispecific antibody, human IgG1)
heavy: B1 heavy
light: DTQVTQSPSSLSASVGDRVTITCITSTDIDVDMNWYQQKPGKPPKLLISQGNTLRPGVPSRFSSSGSGTDFTFTISSLQPEDFATYYCLQSDNLPLTFGQGTKLEIKRTVAAPSVFIFPPEIVLTQSPDFQSVTPKEKVTITCRASQDIGSELHWYQQKPDQPPKLLIKYASHSTSGVPSRFSGSGSGTDFTLTINGLEAEDAGTYYCHQTDSLPYTFGPGTKVDIKRTVAAPSVFIFPPSDEQLKSGTASVVCLLNNFYPREAKVQWKVDNALQSGNSQESVTEQDSKDSTYSLSSTLTLSKADYEKHKVYACEVTHQGLSSPVTKSFNRGEC
B3: DVD2433 (bispecific antibody, human IgG1)
heavy: EVQLQESGPGLVKPSETLSLTCTVSGFSLSDYGVSWIRQPPGKGLEWLGLIWGGGDTYYNSPLKSRLTISKDNSKSQVSLKLSSVTAADTAVYYCAKQRTLWGYDLYGMDYWGQGTLVTVSSASTKGPSVFPLAPEVQLVQSGAEVKKPGSSVKVSCKASGGSFGGYGIGWVRQAPGQGLEWMGGITPFFGFADYAQKFQGRVTITADESTTTAYMELSGLTSDDTAVYYCARDPNEFWGGYYSTHDFDSWGQGTTVTVSS[human IgG1 constant region left out]
light: B1 light
B4: DVD2434 (bispecific antibody, human IgG1)
heavy: B3 heavy
light: B2 light

Columns and labels:
Recombinant Human IL-17 = molecular target: T1, Recombinant Human IL-17 (human, UniProt Q16552 20-155, limits assumed); assay: cell-based or functional assay
T1 sequence (looked up): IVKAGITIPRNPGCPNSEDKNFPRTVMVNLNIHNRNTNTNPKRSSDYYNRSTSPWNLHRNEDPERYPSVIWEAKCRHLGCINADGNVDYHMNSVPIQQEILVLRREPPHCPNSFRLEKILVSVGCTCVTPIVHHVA

Recombinant Human IL-1b = Recombinant Human IL-1b (human, UniProt P01584 117-269); assay: cell-based or functional assay
Chain of UniProt P01584 (P01584 117-269 limits assumed): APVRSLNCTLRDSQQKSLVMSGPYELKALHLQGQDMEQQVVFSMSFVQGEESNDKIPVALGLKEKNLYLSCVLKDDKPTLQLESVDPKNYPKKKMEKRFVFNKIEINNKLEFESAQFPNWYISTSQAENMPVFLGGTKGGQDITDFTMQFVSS

| Binder | C-Terminal VD IL17 Neutralization Assay (IC50 nM) (Recombinant Human IL-17) [nM] | N-Terminal VD IL-1β Neutralization Assay (IC50 nM) (Recombinant Human IL-1b) [nM] |
| --- | --- | --- |
| B1 | 0.805 | 0.168 |
| B2 | 0.079 | 0.194 |
| B3 | 0.125 | 0.295 |
| B4 | 0.055 | 0.298 |
